# Data taken from the supplement of paper PMC8728848.
# The list shows a part of the results.
# B1: Morniga (Morus nigra) (protein)
# chain: MAGTSTNTQTTGTSQTVEVGLWGGPGGNAWDDGSYTGIREINLSHGDAIGAFSVIYDLNGQPFTGPTHPGNEPSFKTVKITLDFPNEFLVSVSGYTGVLPRLATGKDVIRSLTFKTNKKTYGPYGKEEGTPFSLPIENGLIVGFKGRSGFVVDAIGVHLS
# Legend:
# Test in all cases: glycan array binding signal (z-score within array); higher = stronger binding
# Conditions in all cases: glycan notation: IUPAC condensed, linker removed
# [1] = target: GlcNAc(b1-3)Gal(b1-3)GalNAc
# In short: (§1)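 Glycan array binding is given as a within-array Z-score, which can be read as non-binding when negative. The arrays, 3228 of them, came from the Consortium for Functional Glycomics database and were retained only where the protein sequence was available. Z-scores were averaged across arrays of the same protein sequence at different concentrations or buffers and across linkers.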
# GlcNAc(b1-3)Gal(b1-4)Glc = target: GlcNAc(b1-3)Gal(b1-4)Glc
# In short: as §1
# [2] = target: GlcNAc(b1-3)Gal(b1-4)GlcNAc
# In short: as §1
# [3] = target: GlcNAc(b1-3)Gal(b1-4)GlcNAc(b1-3)Gal(b1-4)GlcNAc
# In short: as §1
# GlcNAc(b1-3)GalNAc = target: GlcNAc(b1-3)GalNAc
# In short: as §1
# GlcNAc(b1-3)Man = target: GlcNAc(b1-3)Man
# In short: as §1
# [4] = target: GlcNAc(b1-3)[GlcNAc(b1-4)][GlcNAc(b1-6)]GlcNAc
# In short: as §1
# [5] = target: GlcNAc(b1-3)[GlcNAc(b1-6)]Gal(b1-4)GlcNAc
# In short: as §1
# [6] = target: GlcNAc(b1-3)[GlcNAc(b1-6)]GalNAc
# In short: as §1
# [7] = target: GlcNAc(b1-4)Gal(b1-4)GlcNAc
# In short: as §1
# GlcNAc(b1-4)GlcNAc = target: GlcNAc(b1-4)GlcNAc
# In short: as §1
# [8] = target: GlcNAc(b1-4)GlcNAc(b1-4)GlcNAc
# In short: as §1
# [9] = target: GlcNAc(b1-4)GlcNAc(b1-4)GlcNAc(b1-4)GlcNAc(b1-4)GlcNAc
# In short: as §1
# [10] = target: GlcNAc(b1-4)GlcNAc(b1-4)GlcNAc(b1-4)GlcNAc(b1-4)GlcNAc(b1-4)GlcNAc
# In short: as §1
# [11] = target: GlcNAc(b1-4)[GlcNAc(b1-6)]GalNAc
# In short: as §1
# [12] = target: GlcNAc(b1-6)Gal(b1-4)GlcNAc
# In short: as §1
# GlcNAc(b1-6)GalNAc = target: GlcNAc(b1-6)GalNAc
# In short: as §1
# GlcNAc3Prop(b1-4)GlcNAc = target: GlcNAc3Prop(b1-4)GlcNAc
# In short: as §1
# [13] = target: GlcNAc6S(b1-3)Gal(b1-4)GlcNAc
# In short: as §1
# Kdn(a2-3)Gal(b1-3)GalNAc = target: Kdn(a2-3)Gal(b1-3)GalNAc
# In short: as §1
# Kdn(a2-3)Gal(b1-3)GlcNAc = target: Kdn(a2-3)Gal(b1-3)GlcNAc
# In short: as §1
# Kdn(a2-3)Gal(b1-4)Glc = target: Kdn(a2-3)Gal(b1-4)Glc
# In short: as §1
# Kdn(a2-3)Gal(b1-4)GlcNAc = target: Kdn(a2-3)Gal(b1-4)GlcNAc
# In short: as §1
# [14] = target: Kdn(a2-3)Gal(b1-4)[Fuc(a1-3)]GlcNAc
# In short: as §1
# Kdn(a2-6)Gal(b1-4)GlcNAc = target: Kdn(a2-6)Gal(b1-4)GlcNAc
# In short: as §1
# [15] = target: Man(a1-2)Man(a1-2)Man(a1-3)Man
# In short: as §1
# [16] = target: Man(a1-2)Man(a1-2)Man(a1-6)[Man(a1-3)]Man
# In short: as §1
# Man(a1-2)Man(a1-3)Man = target: Man(a1-2)Man(a1-3)Man
# In short: as §1
# [17] = target: Man(a1-2)Man(a1-3)[Man(a1-2)Man(a1-6)]Man
# In short: as §1
# [18] = target: Man(a1-2)Man(a1-3)[Man(a1-2)Man(a1-6)]Man(a1-6)[Man(a1-2)Man(a1-2)Man(a1-3)]Man
# In short: as §1
# [19] = target: Man(a1-2)Man(a1-3)[Man(a1-2)Man(a1-6)]Man(a1-6)[Man(a1-2)Man(a1-2)Man(a1-3)]Man(b1-4)GlcNAc(b1-4)GlcNAc
# In short: as §1
# [20] = target: Man(a1-2)Man(a1-3)[Man(a1-6)]Man(a1-6)[Man(a1-2)Man(a1-3)]Man(b1-4)GlcNAc(b1-4)GlcNAc
# In short: as §1
# [21] = target: Man(a1-2)Man(a1-6)[Man(a1-3)]Man(a1-6)[Man(a1-2)Man(a1-2)Man(a1-3)]Man
# In short: as §1
# [22] = target: Man(a1-2)Man(a1-6)[Man(a1-3)]Man(a1-6)[Man(a1-2)Man(a1-2)Man(a1-3)]Man(b1-4)GlcNAc(b1-4)GlcNAc
# In short: as §1
# Man(a1-3)[Man(a1-6)]Man = target: Man(a1-3)[Man(a1-6)]Man
# In short: as §1
# [23] = target: Man(a1-3)[Man(a1-6)]Man(a1-6)[Man(a1-2)Man(a1-3)]Man(b1-4)GlcNAc(b1-4)GlcNAc
# In short: as §1
binder,measurement,setting,value
B1,glycan array binding signal (z-score),[1],-0.326
same,glycan array binding signal (z-score),GlcNAc(b1-3)Gal(b1-4)Glc,-0.331
same,glycan array binding signal (z-score),[2],-0.34
same,glycan array binding signal (z-score),[3],-0.337
same,glycan array binding signal (z-score),GlcNAc(b1-3)GalNAc,-0.333
same,glycan array binding signal (z-score),GlcNAc(b1-3)Man,-0.34
same,glycan array binding signal (z-score),[4],-0.334
same,glycan array binding signal (z-score),[5],-0.34
same,glycan array binding signal (z-score),[6],-0.331
same,glycan array binding signal (z-score),[7],-0.337
same,glycan array binding signal (z-score),GlcNAc(b1-4)GlcNAc,-0.336
same,glycan array binding signal (z-score),[8],-0.318
same,glycan array binding signal (z-score),[9],-0.335
same,glycan array binding signal (z-score),[10],-0.329
same,glycan array binding signal (z-score),[11],-0.331
same,glycan array binding signal (z-score),[12],-0.332
same,glycan array binding signal (z-score),GlcNAc(b1-6)GalNAc,-0.339
same,glycan array binding signal (z-score),GlcNAc3Prop(b1-4)GlcNAc,-0.339
same,glycan array binding signal (z-score),[13],-0.338
same,glycan array binding signal (z-score),Kdn(a2-3)Gal(b1-3)GalNAc,-0.198
same,glycan array binding signal (z-score),Kdn(a2-3)Gal(b1-3)GlcNAc,-0.333
same,glycan array binding signal (z-score),Kdn(a2-3)Gal(b1-4)Glc,-0.336
same,glycan array binding signal (z-score),Kdn(a2-3)Gal(b1-4)GlcNAc,-0.331
same,glycan array binding signal (z-score),[14],-0.325
same,glycan array binding signal (z-score),Kdn(a2-6)Gal(b1-4)GlcNAc,-0.329
same,glycan array binding signal (z-score),[15],-0.334
same,glycan array binding signal (z-score),[16],-0.33
same,glycan array binding signal (z-score),Man(a1-2)Man(a1-3)Man,-0.342
same,glycan array binding signal (z-score),[17],-0.331
same,glycan array binding signal (z-score),[18],-0.327
same,glycan array binding signal (z-score),[19],0.503
same,glycan array binding signal (z-score),[20],-0.266
same,glycan array binding signal (z-score),[21],-0.325
same,glycan array binding signal (z-score),[22],-0.147
same,glycan array binding signal (z-score),Man(a1-3)[Man(a1-6)]Man,-0.336
same,glycan array binding signal (z-score),[23],4.19
